Assay results: the RNAGym collection of RNA variant scans (doi:10.7554/elife.90254)
Read counts are not given, so values of variants with three or more changes are uncertain.

B1: LINE1-mini (parent)
chain: GGCAGAGCUCAACACAGCGUGGCAAAGUGGCUGUGGCUAGACUGCC

Variants of: B1
Experiment: self-cleavage, relative activity (ratio to wild type); higher = more cleavage; in vitro, sequencing; the parent is a self-cleaving ribozyme

Q: For GGCAGAGCUCAACAGAGCGUGGCUAAGUGGCUGUGGCUAGACUUCC [C15G A24U G44U], which self-cleavage is on record?
A: 0.02

Q: Which self-cleavage does the source give for GGCAGAGCUCAACAGAGCGUGGCAAAUUAGCUGUGGCUAGACUGCC [C15G G27U G29A] here?
A: 0.09

Q: For GGCAGAGCUCAACAGAGCGUGGCAAAGUGGCUGUGGCUAUACUGCA [C15G G40U C46A], which self-cleavage is on record?
A: 0

Q: With GGCAGAGCUCAACAGAGCGUGCCAAAGUGGCUGUGACUAGACUGCC [C15G G22C G36A] as the variant, how does the self-cleavage read?
A: 0.03

Q: With GGCAGAGCUCAACAGAGCGUGGUGAAGUGGCUGUAGCUAGACUGCC [C15G C23U A24G G35A] as the variant, how does the self-cleavage read?
A: 0.05

Q: For GGCAGAGCUCAACAGAGCGUGGCAAAGUGGCUCUGGCUAGACUACC [C15G G33C G44A], which self-cleavage is on record?
A: 0.03

Q: For GGCAGAGCUCAACAGAGCGUGGCAAAGUAGGUGUGGCUAGACUGCC [C15G G29A C31G], which self-cleavage is on record?
A: 0.01

Q: Which self-cleavage does the source give for GGCAGAGCUCAACAGAGCGUGGCAAAUUGGAUUUGGCUAGACUGCC [C15G G27U C31A G33U] here?
A: 0.03

Q: Which self-cleavage does the source give for GGCAGAGCUCAACAGAACGUGGUAAAGUGGCUGUCGCUAGACUGCC [C15G G17A C23U G35C] here?
A: 0

Q: For GGCAGAGCUCAACAGAGCGUGGUAAAGUGGCCGCGGCUAGACUGCC [C15G C23U U32C U34C], which self-cleavage is on record?
A: 0.03

Q: For GGCAGAGCUCAACAGAGCGUGGCAAUGUGGCUAUGCCUAGACAGCC [C15G A26U G33A G36C U43A], which self-cleavage is on record?
A: 0.02

Q: Which self-cleavage does the source give for GGCAGAGCUCAACAGAGUGUGGCAGAGUGGCUGGGCCUAGACUGCA [C15G C18U A25G U34G G36C C46A] here?
A: 0

Q: Which self-cleavage does the source give for GGCAGAGCUCAACAGUGUGUAGCAAAUUGGCUGCGGUUAGACUGCC [C15G A16U C18U G21A G27U U34C C37U] here?
A: 0.07

Q: Which self-cleavage does the source give for GGCAGAGCUCAACAGAGCGCGGAAAAGUGGCUGGGGCUAGACUGCC [C15G U20C C23A U34G] here?
A: 0.02

Q: For GGCAGAGCUCAACAGAGCGCGGCAAAGUGGAUGUGGCUAGACUGCC [C15G U20C C31A], which self-cleavage is on record?
A: 0.03

Q: With GGCAGAGCUCAACAGAGCGUGGCAAAGUGGCUGUCGCUAGACUGCU [C15G G35C C46U] as the variant, how does the self-cleavage read?
A: 0.18

Q: For GGCAGAGCUCAACAGAGCGUGGCAAAGUGGCUGUGGUUAGACUGCU [C15G C37U C46U], which self-cleavage is on record?
A: 0.01

Q: Which self-cleavage does the source give for GGCAGAGCUCAACAGAGCGUAGCAAAGUUGCUGUGCCUAGACCGCC [C15G G21A G29U G36C U43C] here?
A: 0.02

Q: Which self-cleavage does the source give for GGCAGAGCUCAACAGAACGUGGCAGAUUUGCUUUGGCUAGACGGCC [C15G G17A A25G G27U G29U G33U U43G] here?
A: 0.03

Q: Which self-cleavage does the source give for GGCAGAGCUCAACAGAGCCUGGCAAAGUGGCUAUGGCUAGACUGCU [C15G G19C G33A C46U] here?
A: 0.02

Q: Which self-cleavage does the source give for GGCAGAGCUCAACAGAUCGCGGCAAAGUGGCUGUGGCUAGACUGCC [C15G G17U U20C] here?
A: 0.01

Q: For GGCAGAGCUCAACAGAGCGUGGCACAGUGGCUGUGGGUGUACUGCA [C15G A25C C37G A39G G40U C46A], which self-cleavage is on record?
A: 0.01

Q: Which self-cleavage does the source give for GGCAGAGCUCAACAGAGCGUUGCAAAGUGGCUGUGACUAGACUGCC [C15G G21U G36A] here?
A: 0.02

Q: With GGCAGAGCUCAACAGAGCGUGGCAAAGUGCCUGUGGCCAAACUACC [C15G G30C U38C G40A G44A] as the variant, how does the self-cleavage read?
A: 0

Q: Which self-cleavage does the source give for GGCAGAGCUCAACAGAGCGUGGCAAAGUUGCUGUGCCUAGACUGCC [C15G G29U G36C] here?
A: 0.02

Q: With GGCAGAGCUCAACAGAGCGUGCCAAAGUGGCUGUGGCUUGACUGCC [C15G G22C A39U] as the variant, how does the self-cleavage read?
A: 0.01

Q: With GGCAGAGCUCAACAGAGCGAGGCAAAGAGGCUGUGGUUCGACUGCC [C15G U20A U28A C37U A39C] as the variant, how does the self-cleavage read?
A: 0

Q: Which self-cleavage does the source give for GGCAGAGCUCAACAGAGCGUUCCAAAGUGGCUGUGGCAAGACUUCC [C15G G21U G22C U38A G44U] here?
A: 0.01

Q: For GGCAGAGCUCAACAGAGCGUGGCAAAGUGCUUGUGGCUAGAAUGCC [C15G G30C C31U C42A], which self-cleavage is on record?
A: 0.01

Q: With GGCAGAGCUCAACAGAGCGUGAUAAAGUCACUGUGGCUAGACUGCC [C15G G22A C23U G29C G30A] as the variant, how does the self-cleavage read?
A: 0.02

Q: Which self-cleavage does the source give for GGCAGAGCUCAACAGAGCGUGGCAAGGUGGCUGUGGCUCGCCUGCC [C15G A26G A39C A41C] here?
A: 0

Q: For GGCAGAGCUCAACAGAGCAUGGCAAAGUGGCUGUGGCAAGACUGCC [C15G G19A U38A], which self-cleavage is on record?
A: 0.12

Q: For GGCAGAGCUCAACAGAGCGUGGCAAAGUGUUUGUGGCUAGACUUCC [C15G G30U C31U G44U], which self-cleavage is on record?
A: 0.01

Q: Which self-cleavage does the source give for GGCAGAGCUCAACAGAGGGUGGCAAAGUGGCUGUGGCUAGACAGCC [C15G C18G U43A] here?
A: 0.06

Q: For GGCAGAGCUCAACAGAGCGUGGCACAGUGGCUGUGCCUAGACUGCC [C15G A25C G36C], which self-cleavage is on record?
A: 0.02

Q: With GGCAGAGCUCAACAGAGCUUCGCAAAGUGGCUGUGGCCAGACUGCC [C15G G19U G21C U38C] as the variant, how does the self-cleavage read?
A: 0.02

Q: With GGCAGAGCUCAACAGAGCGUGGCUAAGUGGCUGUGGCAAGACUGCC [C15G A24U U38A] as the variant, how does the self-cleavage read?
A: 0.02

Q: For GGCAGAGCUCAACAGAGCAUGGCAAAGUGGCUUUGGCUAGACUGCC [C15G G19A G33U], which self-cleavage is on record?
A: 0.22

Q: For GGCAGAGCUCAACAGAGACUGUCAAAGUGGCUGUUGCUAGAGUGCC [C15G C18A G19C G22U G35U C42G], which self-cleavage is on record?
A: 0

Q: Which self-cleavage does the source give for GGCAGAGCUCAACAGAGCGUGGCAAAGUGGUUGUGGCUAGACUGGC [C15G C31U C45G] here?
A: 0.02

Q: With GGCAGAGCUCAACAGAACGUGGCAAAGUAGCUGUGGCUAGAGUGCC [C15G G17A G29A C42G] as the variant, how does the self-cleavage read?
A: 0.04

Q: With GGCAGAGCUCAACAGAGCGUGGCAAAGUGGCUGUGGCUGGACAGCC [C15G A39G U43A] as the variant, how does the self-cleavage read?
A: 0

Q: With GGCAGAGCUCAACAGAGCGUGGUAAAGUGGCUGUGGCAAGACUGCC [C15G C23U U38A] as the variant, how does the self-cleavage read?
A: 0.38

Q: Which self-cleavage does the source give for GGCAGAGCUCAACAGACCGUGGCACAGUGGCUGUGGCUAGACUGGC [C15G G17C A25C C45G] here?
A: 0.04

Q: With GGCAGAGCUCAACAGAGCGGGGCACCGUGGUUGUGGCUAGACUGCC [C15G U20G A25C A26C C31U] as the variant, how does the self-cleavage read?
A: 0.02

Q: For GGCAGAGCUCAACAGAGCCUGGCAAAGUGGCUGUGACUAGACUGCC [C15G G19C G36A], which self-cleavage is on record?
A: 0.06

Q: For GGCAGAGCUCAACAGAGCGUGGCAAAGUGGGUGUGGCAAGACUGCC [C15G C31G U38A], which self-cleavage is on record?
A: 0.03

Q: Which self-cleavage does the source give for GGCAGAGCUCAACAGAGCGUGGCAACGUGGCUGUGGCUAGACUACC [C15G A26C G44A] here?
A: 0.02

Q: With GGCAGAGCUCAACAGAGCGUGACAAAGUGGCUGUUGCUAGACUGCC [C15G G22A G35U] as the variant, how does the self-cleavage read?
A: 0.11

Q: With GGCAGAGCUCAACAGAGCGUGGAAAAGUGCCAGUGGCUAGAGUGCC [C15G C23A G30C U32A C42G] as the variant, how does the self-cleavage read?
A: 0

Q: With GGCAGAGCUCAACAGAGCGUGGCAAAGGGCCUGUUGGUAGAUUGGC [C15G U28G G30C G35U C37G C42U C45G] as the variant, how does the self-cleavage read?
A: 0

Q: With GGCAGAGCUCAACAGAGCGUGGCAAAGUGGAUGUGGCUACACUGCC [C15G C31A G40C] as the variant, how does the self-cleavage read?
A: 0.02

Q: For GGCAGAGCUCAACAGAGCGUGGCAACGUGGCUGUGGCUAGACUGAC [C15G A26C C45A], which self-cleavage is on record?
A: 0.02

Q: For GGCAGAGCUCAACAGAGCGCUGCAACGUGCCUGUGGAUAGACUGCC [C15G U20C G21U A26C G30C C37A], which self-cleavage is on record?
A: 0.01

Q: Which self-cleavage does the source give for GGCAGAGCUCAACAGAGCGUGGGAAGGUGGCUGUGGCUAGACUGUC [C15G C23G A26G C45U] here?
A: 0.01

Q: Which self-cleavage does the source give for GGCAGAGCUCAACAGAGCGGGGCAAACUGGCUAUGGGUAAACUGCC [C15G U20G G27C G33A C37G G40A] here?
A: 0.01
